Measurements reported in the supplement of paper PMC10369915.
The list shows a part of the results. No stated cut-off is given here; in the data, active = 3.2 or more and inactive = the rest. Most of these values are background signal.

B1: IL2RB_HUMAN_381 (peptide)
chain: EIEACQVYFTYDPYS
B2: IL2RB_HUMAN_381_YA (peptide)
chain: EIEACQVYFTADPAS
B3: IL2RB_HUMAN_384_YA (peptide)
chain: ACQVAFTYDPASEED
B4: IL4RA_HUMAN_497 (peptide)
chain: VIAGNPAYRSFSNSL
B5: IL4RA_HUMAN_575 (peptide)
chain: VSAPTSGYQEFVHAV
B6: AKT2_HUMAN_475 (peptide)
chain: THFPQFSYSASIREG
B7: INSR_HUMAN_1011 (peptide)
chain: DVFPCSVYVPDEWEV
B8: INSR_HUMAN_1185 (peptide)
chain: FGMTRDIYETDYYRK
B9: AL1A2_HUMAN_168 (peptide)
chain: TIPVDGDYFTFTRHE
B10: INSR_HUMAN_1355 (peptide)
chain: SLGFKRSYEEHIPYT
B11: INSR_HUMAN_1361_YA (peptide)
chain: SAEEHIPYTHMNGGK
B12: INSR_HUMAN_401 (peptide)
chain: YLKIRRSYALVSLSF
B13: INSR_HUMAN_999_YA (peptide)
chain: AASSNPEYLSASDVF
B14: ALDOA_HUMAN_5 (peptide)
chain: GGGMPYQYPALTPEQ
B15: INSRR_HUMAN_1141 (peptide)
chain: FGMTRDVYETDYYRK
B16: INSRR_HUMAN_1146_YA (peptide)
chain: DVAETDAYRKGGKGL
B17: IRS1_HUMAN_1179 (peptide)
chain: GLENGLNYIDLDLVK
B18: IRS1_HUMAN_465 (peptide)
chain: GEEELSNYICMGGKG
B19: ALDOA_HUMAN_5_YA (peptide)
chain: GGGMPAQYPALTPEQ
B20: IRS1_HUMAN_632 (peptide)
chain: GRKGSGDYMPMSPKS
B21: IRS1_HUMAN_941 (peptide)
chain: EETGTEEYMKMDLGP
B22: IRS2_HUMAN_540_YA (peptide)
chain: GGGGGEFYGAMTMDR
B23: IRS2_HUMAN_675 (peptide)
chain: GSCRSDDYMPMSPAS
B24: IRS2_HUMAN_919 (peptide)
chain: EPKSPGEYINIDFGE
B25: ISLR2_HUMAN_719 (peptide)
chain: EFEAGSEYSDRLPLG
B26: IST1_HUMAN_43 (peptide)
chain: ARKEIADYLAAGKDE
B27: ITB3_HUMAN_785 (peptide)
chain: STFTNITYRGTGGGG
B28: ITGB7_HUMAN_753 (peptide)
chain: YRLSVEIYDRREYSR
B29: ITGB7_HUMAN_758_YA (peptide)
chain: EIADRREYSRFEKEQ
B30: ITPR1_HUMAN_2664 (peptide)
chain: KVKDSTEYTGPESYV
B31: ITPR1_HUMAN_2664_YA (peptide)
chain: KVKDSTEYTGPESAV
B32: ITPR2_HUMAN_2607 (peptide)
chain: KVKDPTEYTGPESYV
B33: JAK1_HUMAN_1034 (peptide)
chain: AIETDKEYYTVKDDR
B34: JAK1_HUMAN_1034_YA (peptide)
chain: AIETDKEYATVKDDR
B35: JAK1_HUMAN_1035 (peptide)
chain: IETDKEYYTVKDDRD
B36: JAK1_HUMAN_3 (peptide)
chain: GGGGGMQYLNIKEDC

Molecular target: SHP2 C-SH2 domain E139D
Assay: enrichment score (SH2-bound / input frequency) (ratio); bacterial display of known human phosphotyrosine sites (pTyr-Var adds point mutants) read by sequencing; higher = stronger binding; tyrosines were phosphorylated by kinases first
Settings: peptide library: Human pTyr
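Further: displayed peptides selected on beads carrying the immobilized SH2 domain, with library peptides lacking any tyrosine serving as negative controls.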

Enrichment score, inactive:
B1 1.64
B2 1.23
B3 1.17
B4 0.768
B5 0.867
B6 1.19
B7 1.3
B8 0.94
B9 1.23
B10 0.615
B11 0.948
B12 1.65
B13 0.637
B14 0.577
B15 0.848
B16 0.772
B17 0.914
B18 1.1
B19 0.713
B20 0.888
B21 0.999
B22 0.581
B23 0.934
B24 1.02
B25 0.627
B26 0.811
B27 0.823
B28 1.34
B29 1.09
B30 1.11
B31 0.938
B32 0.798
B33 1.22
B34 1.19
B35 1.41
B36 0.887

Molecular target: SHP2 C-SH2 domain wild-type
Assay: as above
Settings: peptide library: Human pTyr

Enrichment score, inactive:
B1 1.22
B2 1.26
B3 1.01
B4 0.661
B5 0.759
B6 1.08
B7 1.14
B8 0.762
B9 0.814
B10 0.646
B11 0.881
B12 1.67
B13 0.592
B14 0.531
B15 0.82
B16 0.691
B17 0.656
B18 1.26
B19 0.526
B20 0.728
B21 0.779
B22 0.557
B23 0.927
B24 1.1
B25 0.454
B26 0.893
B27 0.653
B28 0.936
B29 0.761
B30 0.891
B31 0.853
B32 0.801
B33 1.28
B34 0.867
B35 1.48
B36 0.621

Molecular target: SHP2 N-SH2 domain L43F
Assay: as above
Settings: peptide library: Human pTyr

Enrichment score, active:
B17 5.83
B24 4.31

Enrichment score, inactive:
B1 1.53
B2 0.884
B3 1.16
B4 0.682
B5 0.659
B6 1.12
B7 1.4
B8 0.555
B9 0.985
B10 0.745
B11 0.709
B12 1.65
B13 0.573
B14 0.552
B15 0.752
B16 0.847
B18 1.01
B19 0.598
B20 0.8
B21 0.918
B22 0.508
B23 0.811
B25 0.595
B26 0.654
B27 0.759
B28 0.765
B29 0.771
B30 1.34
B31 0.978
B32 0.934
B33 1.12
B34 0.759
B35 1.83
B36 0.735

Molecular target: SHP2 N-SH2 domain T42A
Assay: as above
Settings: peptide library: Human pTyr

Enrichment score, active:
B17 4.02

Enrichment score, inactive:
B1 1.92
B2 1.19
B3 1.09
B4 0.69
B5 0.617
B6 1.35
B7 1.25
B8 0.888
B9 0.994
B10 0.669
B11 0.66
B12 1.77
B13 0.418
B14 0.475
B15 0.78
B16 0.724
B18 1.31
B19 0.611
B20 0.822
B21 0.59
B22 0.502
B23 0.853
B24 3.12
B25 0.485
B26 0.764
B27 0.635
B28 1.39
B29 0.718
B30 0.943
B31 0.88
B32 0.828
B33 0.917
B34 1.03
B35 1.1
B36 0.821

Molecular target: SHP2 N-SH2 domain T52S
Assay: as above
Settings: peptide library: Human pTyr

Enrichment score, inactive:
B1 1.57
B2 1.35
B3 1.32
B4 0.878
B5 0.845
B6 0.889
B7 1.38
B8 0.795
B9 1.07
B10 0.617
B11 0.92
B12 1.55
B13 0.643
B14 0.591
B15 0.759
B16 0.763
B18 1.14
B19 0.578
B20 0.87
B21 1.03
B22 0.71
B23 1.17
B25 0.524
B26 0.702
B27 0.692
B28 0.969
B29 0.782
B30 0.85
B31 1.07
B32 0.908
B33 1.07
B34 1.22
B35 1.38
B36 0.82

Enrichment score, active:
B17 3.82
B24 3.24

Molecular target: SHP2 N-SH2 domain wild-type
Assay: as above
Settings: peptide library: Human pTyr

Enrichment score, inactive:
B1 1.74
B2 1.31
B4 0.753
B5 0.602
B6 1.18
B7 1.37
B8 1.08
B9 1.31
B10 0.898
B11 0.76
B12 1.58
B13 0.576
B14 0.574
B15 0.877
B16 0.897
B17 1.82
B18 1.36
B19 0.589
B20 0.884
B21 0.884
B22 0.624
B23 1.08
B24 1.15
B25 0.599
B26 0.756
B27 0.864
B28 0.793
B29 0.936
B30 1.14
B31 0.912
B32 0.936
B33 1.53
B34 1.02
B35 1.18
B36 0.687

Enrichment score, active:
B3 3.82
